# The campaign covered roughly 150,000 compounds. About 540 (0.36%) showed an effect of 50% or more. The list shows a part of the results.
# Test system: Plasmodium falciparum
# Test: Primary screen in NF54 nanoGlo assay, in single point, at 2uM, 72h; a lower Z score goes with more inhibition
# Assay type: functional, Erythrocyte
# Details: timepoint 72 hour
SMILES,% Inhibition [%],Z score
C[C@H](NC(=O)N1CCC2(CC1)NC(=O)CO2)c1ccsc1,3,-0.55
O=C(Cc1ccsc1)N[C@@H]1COCC[C@@H]1OCc1ccccc1,6,-0.74
C[C@H](C(=O)NCc1nnnn1C)C(C)(C)C,-7,0.8
O=C1CCCN1CCCN1C(=O)[C@@H]2C[C@@H](O)CN2C2(CN(Cc3ccccc3F)C2)C1=O,-2,0.28
Cc1ncsc1CCS(=O)(=O)N1CC[C@H](n2cc(Cl)cn2)C1,-14,1.81
O=C(CN1CCOC1=O)N1CCC(c2nnc(-c3ccc(F)cc3)o2)CC1,-12,2.3
O=C(CN(CCC(F)(F)F)C1CCC1)N1CCCCC1,-6,0.81
CC(C)C(=O)Nc1ccc(CNC(=O)C(C)(C)S(=O)(=O)c2ccc(Br)cc2)cc1,-7,0.82
O=C(N1CCc2oncc2C1)C1(c2ccccc2)CCOCC1,-8,1.3
CC(=O)Nc1ccc(S(=O)(=O)N2CCC[C@H]2c2cc(C)no2)cc1,-2,0.23
CC(C)NC(=O)N1C[C@@H]2Oc3ccc(C(F)(F)F)cc3C(=O)N(C)[C@@H]2C1,-11,1.7
Cc1nc(CCCNC(=O)[C@@H]2CCCO2)sc1C,3,-0.43
Cc1ccc(CN2Cc3ccccc3N(CC(=O)O)C2=O)cc1,14,-2
O=C(NC[C@H]1C[C@@H]1c1ccccc1)N1CCC(c2ccon2)CC1,-10,0.99
COc1ccccc1CC(=O)NCc1ccccc1CN1CCCC[C@@H]1C,0,0.05
C#CC[C@H](NC(=O)Cc1cc(F)c(F)cc1F)C(N)=O,-4,0.86
N[C@H]1[C@@H]2CC[C@H]1CN(C(=O)CCc1cccc(Cl)c1)C2,-3,0.52
CCCn1cc(C(=O)N2CC[C@H](c3cccnc3OC)C2)cn1,-17,2.15
O=C(O)CCc1cc2n(n1)CCN(Cc1cc(C3CCCCC3)no1)C2,-3,0.55
Clc1ccc2c(-c3ccccc3)c3c(nc2c1)Cc1ccccc1-3,-7,0.88
Cc1cccc([C@H](C)OC(=O)CN(C)S(=O)(=O)c2cccnc2)c1,-9,1.61
CC(C)(C)OC(=O)N1C[C@@H]2CCCN(C(=O)NCC(F)F)[C@@H]2C1,-8,1.54
C=CCc1cc(C(=O)NCc2n[nH]c(=O)[nH]2)ccc1OC,-12,1.25

# — ChEMBL document CHEMBL4888484, “Replenishing the malaria drug discovery pipeline: Screening and hit evaluation of the MMV Hit Generation Library 1 (HGL1) against asexual blood stage Plasmodium falciparum ,using a nano luciferase reporter read-out” (2022)
